# Source: the supplement of paper PMC12217912
# Some of the results follow. The full chains were built here from the parent and the listed change. Inactive controls read about 0.05.
# B1: TEV protease; numbered along this chain (parent)
# chain: MGESLFKGPRDYNPISSSICHLTNESDGHTTSLYGIGFGPFIITNKHLFRRNNGTLVVQSLHGVFKVKDTTTLQQHLVDGRDMIIIRMPKDFPPFPQKLKFREPQREERICLVTTNFQTKSMSSMVSDTSCTFPSGDGIFWKHWIQTKDGQCGSPLVSTRDGFIVGIHSASNFTNTNNYFTSVPKNFMELLTNQEAQQWVSGWRLNADSVLWGGHKVFMVKPEEPFQPVKEATQL
# Variants of: B1
# Test: raw area under fraction-flipped curve 0-4 h after induction (AUC4h, not background-subtracted), DNA-recorder readout of cleavage of the substrate (dimensionless); higher = more cleavage of the substrate by the protease variant
# Conditions: temperature: 34 °C; time window: 0-4 h after rhamnose induction
# 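Also: Bxb1 expression induced with 0.2% (w/v) L-rhamnose at OD600 near 0.5, cultures sampled hourly, flipped fraction per protease–substrate barcode pair counted by paired-end Illumina sequencing.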
Variant,area with substrate ENLYFQC,area with substrate ENLYFQE,area with substrate ENLYFQG,area with substrate ENLYFQH,area with substrate ENLYFQI,area with substrate ENLYFQK,area with substrate ENLYFQL,area with substrate ENLYFQQ,area with substrate ENLYFQR,area with substrate ENLYFQS,area with substrate ENLYFQT,area with substrate ENLYFQW,area with substrate ENLYFQD,area with substrate ENLYFQF,area with substrate ENLYFQM,area with substrate ENLYFQN,area with substrate ENLYFQP,area with substrate ENLYFQV,area with substrate ENLYFQY,area with substrate ENLYFQA
I19T,0.1,0.0459,0.0912,0.0779,0.0493,0.0553,0.0539,0.0342,0.0542,0.0961,0.0607,0.0597,,,,,,,,
I19Q,0.115,,0.0834,,0.0583,0.0533,,0.0786,0.0646,0.104,0.0645,0.0631,0.068,0.053,0.101,0.084,0.0429,,,
H21S,0.104,0.0723,0.0889,0.0744,0.0598,0.0632,0.0615,0.0673,0.0596,0.102,0.0577,0.0655,0.103,,0.0901,0.0839,,0.0573,0.0414,
M122K,0.136,0.0823,,,,,0.0657,,0.0537,0.11,0.0744,0.0581,0.0744,,0.0902,0.121,,,0.0589,
T132G,0.16,,0.0871,,0.0582,0.0597,0.0656,0.0735,0.0604,0.0906,0.0647,0.0621,0.0696,0.0567,0.0667,0.0803,0.0575,0.0724,0.0517,0.0902
E231M,0.0941,,,0.0894,,0.0603,0.0615,0.0782,0.0528,0.0941,0.0478,0.0712,0.0631,,0.0936,0.078,,,0.0724,
V157R,0.0747,0.0432,0.073,,,0.0578,0.0447,0.0478,0.0703,0.0632,0.0475,0.0622,0.0582,0.0575,,0.0761,0.0089,0.0457,,
L205F,0.119,,0.109,,,,0.0612,0.0683,0.0563,0.104,0.034,0.0579,,,0.098,,,,,
I139N,0.0987,,0.0984,0.0945,0.0714,0.055,0.0596,,0.0626,0.105,0.0614,0.0637,,0.0699,,0.06,0.0551,0.0671,0.0618,0.107
P104Y,0.0533,,,0.0661,0.0509,0.0527,0.0526,,,0.0523,0.0558,0.0479,0.0524,,0.0557,0.058,0.0545,0.0535,0.0535,
T44L,0.0531,,0.0993,0.085,0.0615,0.0681,0.046,0.0512,0.0464,0.0653,0.0663,0.0508,0.0437,0.0553,0.0596,0.0411,0.0501,0.0501,0.0526,
P155M,0.0703,,,0.0558,0.0518,0.0841,0.0639,,0.0498,0.0705,0.0543,,0.0522,,0.0546,,,,,
N52T,0.0509,0.0785,,0.0789,0.0615,,,,0.0517,0.0792,0.0574,0.0615,0.0517,,0.0732,0.0641,,,,0.0688
N53A,0.0878,,0.0798,0.0827,0.0556,0.0767,0.0562,0.0617,0.0685,0.0934,0.0689,0.0561,0.0731,,0.0889,0.0807,0.053,0.0691,,
N53G,0.0834,,0.0899,0.0755,0.0622,,0.0645,,0.0576,0.0858,0.0599,0.0662,,0.0778,0.0826,0.0736,,0.0548,0.0556,0.08
T31R,0.0748,,0.0676,0.0741,0.0531,0.044,0.057,,,0.0655,,,,,0.0797,0.057,0.0544,,0.0626,0.0362
V229H,0.111,,0.085,0.0788,0.0764,,0.0584,0.0655,0.0615,0.106,,,0.0692,0.0872,0.0963,0.0784,,,,
E25A,0.134,,0.108,0.0213,0.0583,0.0542,0.0486,0.079,0.0647,0.105,0.0651,0.0661,,,0.0901,0.0747,0.0557,0.0506,,0.0937
G150F,0.0585,,0.0536,0.0482,0.0603,0.0599,0.0651,,0.0712,0.0564,0.0612,0.0631,0.0562,,0.0487,,,,0.0418,
G166Q,0.0541,,0.0464,,0.0591,0.0613,0.0646,,0.0512,0.0484,0.0646,0.0479,0.0291,,,0.0608,,,,
M188L,0.109,0.0654,0.0737,,0.0398,,0.0595,,0.0586,0.105,0.064,0.0704,0.0514,0.0654,0.101,,0.0464,,,
M188T,0.111,0.0606,,0.0804,0.064,0.072,0.0805,0.0515,,0.102,0.0444,0.072,0.0792,,,0.0808,,0.0738,,
R160A,0.106,0.0667,0.0606,0.0898,0.0631,0.0817,0.07,0.0721,0.0647,0.106,0.0576,,,,0.104,0.0742,0.0865,0.0835,0.0635,
F49H,0.0666,,0.035,0.053,,0.0488,0.0507,0.0579,0.0457,0.0589,0.0642,0.0587,,,0.0637,0.0552,,0.0583,0.0491,
T55I,,,0.105,,,,0.0602,,0.064,0.0992,0.0624,0.0637,0.0539,,0.0825,,,0.0548,0.0675,0.074
T147Y,0.0623,,0.154,0.0577,0.0634,0.0698,0.0631,,0.0564,0.0599,0.0603,,,0.0574,,0.0676,,0.063,,
